# Among all 310,000 compounds or so, about 14,000 (4.5%) showed an effect of 50% or more. Effects have a minus sign here. The list shows a part of the results.
# Molecular target: human ether-à-go-go-related gene (hERG) potassium channel (human, UniProt Q12809)
# Experiment: primary screen, population patch clamp on CHO cells stably expressing hERG
# 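Also: peak tail current of the secondary pulse compared with the same well before compound.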
# Chain of human ether-à-go-go-related gene (hERG) potassium channel (Q12809 whole entry, looked up): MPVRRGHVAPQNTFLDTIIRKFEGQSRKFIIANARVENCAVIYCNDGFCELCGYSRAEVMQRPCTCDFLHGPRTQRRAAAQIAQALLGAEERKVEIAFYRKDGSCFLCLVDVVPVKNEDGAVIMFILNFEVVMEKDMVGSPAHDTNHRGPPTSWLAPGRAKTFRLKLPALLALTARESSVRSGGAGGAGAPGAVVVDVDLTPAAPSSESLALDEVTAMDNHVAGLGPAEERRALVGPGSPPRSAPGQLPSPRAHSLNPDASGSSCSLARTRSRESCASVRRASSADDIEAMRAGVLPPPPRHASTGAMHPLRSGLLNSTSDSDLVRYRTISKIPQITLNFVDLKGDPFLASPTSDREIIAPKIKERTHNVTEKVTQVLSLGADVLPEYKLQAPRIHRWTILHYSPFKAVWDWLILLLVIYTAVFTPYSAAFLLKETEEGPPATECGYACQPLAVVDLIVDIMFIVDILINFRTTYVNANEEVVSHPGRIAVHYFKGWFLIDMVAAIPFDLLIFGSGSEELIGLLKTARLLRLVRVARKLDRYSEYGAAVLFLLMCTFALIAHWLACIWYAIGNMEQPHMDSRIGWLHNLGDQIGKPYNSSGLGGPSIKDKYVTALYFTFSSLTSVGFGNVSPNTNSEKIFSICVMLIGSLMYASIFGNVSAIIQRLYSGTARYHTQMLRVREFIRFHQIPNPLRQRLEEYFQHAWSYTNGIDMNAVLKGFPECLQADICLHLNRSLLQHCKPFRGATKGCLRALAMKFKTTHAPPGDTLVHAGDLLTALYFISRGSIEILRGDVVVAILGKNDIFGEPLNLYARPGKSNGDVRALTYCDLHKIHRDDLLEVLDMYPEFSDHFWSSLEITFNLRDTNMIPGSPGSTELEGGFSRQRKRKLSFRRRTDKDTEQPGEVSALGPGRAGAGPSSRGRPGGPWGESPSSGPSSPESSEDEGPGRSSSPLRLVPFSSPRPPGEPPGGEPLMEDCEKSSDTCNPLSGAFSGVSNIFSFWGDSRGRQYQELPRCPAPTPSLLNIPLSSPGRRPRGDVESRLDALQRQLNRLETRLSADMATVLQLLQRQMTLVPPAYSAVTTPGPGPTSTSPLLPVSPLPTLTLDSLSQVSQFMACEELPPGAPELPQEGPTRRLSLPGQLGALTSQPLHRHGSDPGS
row,Compound,"hERG current change (%, negative = inhibition) at 10uM"
1,Cn1cc(SCC(=O)Nc2ccc3c(c2)OCCO3)c2ccccc21,-19.3%
2,O=C(Cn1c(-c2ccccc2)c[n+]2ccsc12)c1ccc([N+](=O)[O-])cc1.[Br-],-49%
3,O=C(CN1CCN(S(=O)(=O)c2ccc(Cl)s2)CC1)N1CCOCC1,14.4%
4,CCN(CC(=O)Nc1ccc(Cl)c(S(=O)(=O)N(C)C)c1)CC(=O)NC(C)C,8.55%
5,Cc1ccc(S(=O)(=O)Nc2ccc3c(c2)nc2n3CCN(Cc3ccccc3)C2)cc1,-18.8%
6,COC(=O)c1cc(-c2c(C)oc3cc(O)ccc3c2=O)c(C)o1,-3.71%
7,CC(=O)N1c2ccc(S(=O)(=O)N3CCC(C(=O)NCCc4ccc(Cl)cc4)CC3)cc2CC1C (stereo not shown),14.3%
8,Cc1cc(C(F)(F)F)nn1CCCNC(=O)c1cnccn1,-18.7%
9,CSc1nc(Sc2ccc(Cl)cc2)c2ccccc2n1,22.2%
10,Cc1cccc(NC(=S)NC2CC3CCCC(C2)N3CC(C)C)c1 (stereo not shown),-41.5%
11,Cc1ccc(C(=O)Nc2ccc(C(F)(F)F)n(C)c2=O)cc1,23.4%
12,O=C(CCN1CCCCO1)N1CCCC(Nc2cccc(F)c2)C1 (stereo not shown),14%
13,Cc1ccccc1OCC(=O)NNC(=S)NC(=O)c1ccco1,11.3%
14,Cc1ccc(CN2CC3CC(C2)c2cccc(=O)n2C3)cc1 (stereo not shown),-5.29%
15,Cc1ccc(S(N)(=O)=O)cc1NC(=O)/C=C/c1cccs1,-9.76%
16,CC(=O)N1c2ccc(S(=O)(=O)NCCC(=O)N(C)Cc3ccccc3)cc2CC1C (stereo not shown),0.141%
17,CCC(=O)Nc1cccc(NC(=O)c2ccc3c(c2)OCO3)c1,-10.5%
18,Cc1cccc(-c2noc(CN(C(=O)c3ccc(Br)o3)C(C)C)n2)c1,4.16%
19,Cc1cc(C[n+]2ccccc2)c2nsnc2c1.[Cl-],17.3%
20,CSc1nc(C)cc(C)c1C#N,-3.61%

row,Compound,"hERG current change (%, negative = inhibition) at 10uM"
1,CCc1nc2sc3c(c2c(=O)n1N)CC(C)(C)OC3,7.31%
2,Cn1nc(OCCOc2ccccc2)ccc1=O,-4.45%
3,COc1ccc(-c2cc(C(=O)Nc3cccc(S(=O)(=O)NCc4ccco4)c3)c3ccccc3n2)cc1OC,22.5%
4,O=C(CCNS(=O)(=O)c1ccccc1)NNC(=O)COc1ccc(Cl)cc1,2.29%
5,Cc1ccc(SCCC(=O)NCCSCc2ccco2)cc1,14.5%
6,CN(C)CCNC(=O)C1CC(=O)N(c2ccc(F)c(Cl)c2)C1 (stereo not shown),-11.2%
7,COc1ccccc1CN=C1NC(=O)C(CC(=O)Nc2ccc(C(C)=O)cc2)S1 (stereo not shown),-6.17%
8,COc1ccccc1CNC(=O)C1CCC(CNC(=O)[C@@H]2Cc3ccccc3CN2)CC1 (stereo partly shown),2.23%
9,CCCCn1c(SCC(=O)Nc2cc(C)on2)nc2cc(S(N)(=O)=O)ccc21,-20.1%
10,N/C(=N\OC(=O)c1ccc2c(c1)OCO2)c1cccnc1,-2.28%
11,CCOc1cc(C(=O)CCC(=O)OCC(=O)NC(=O)NCC(C)C)ccc1O,-20.3%
12,CCOc1ccccc1C(=O)NC1CC2CCCC(C1)N2Cc1ccc(C)cc1 (stereo not shown),-65.2%
13,COC(=O)CSc1nc2nc(C)cc(C)n2n1,4.29%
14,COc1ccc(/C=C2\C(=O)NC(=O)N(Cc3ccccc3)C2=O)c(OC)c1OC,3.19%
15,O=C(CN1CCc2ccccc2C1)Nc1ccc(F)cc1,8.61%
16,O=C(O)c1c(NC(=O)N2CCOCC2)sc2c1CCCC2,29.1%
17,O=C(O)C[C@H]1c2cc(F)ccc2S(=O)(=O)N1C1CCCCC1,10.2%
18,CC(C)(C)OC(=O)N/N=C/c1cccn1-c1ccc([N+](=O)[O-])cc1,-12.4%
19,Cc1ccc(-n2nnnc2SCC(=O)NC(C(=O)O)(c2ccccc2)c2ccccc2)cc1C,29.8%
20,COC(=O)/C(C(C)=O)=C(/C=C/C=C/N(C)C)N(C)C,13.3%

row,Compound,"hERG current change (%, negative = inhibition) at 10uM"
1,COc1ccc(-c2ccc(C)cc2)cc1[C@H]1[C@@H]2C=CCC[C@@]2(C)C(=O)N1Cc1ccccc1,10.6%
2,Cc1ccc2nc(SCC(=O)N3CCCCC3)nc(=O)n2c1,11.4%
3,O=[N+]([O-])c1ccc(Sc2nnnn2-c2ccccc2)c(Cl)c1,-41%
4,CN1CCN(c2ncnc3nc[nH]c23)CC1,18.5%
5,O=C(NCCNc1ccccc1[N+](=O)[O-])c1cc(F)c(F)cc1Cl,-52.1%
6,CS(=O)(=O)N(Cc1ccccc1)c1ccc(C(=O)NCc2cccnc2)cc1,-20.8%
7,COc1ccc(CCNC(=O)c2ccncc2)cc1OC,4.62%
8,CCOc1ccc(C(=O)NCC2CCCO2)cc1 (stereo not shown),0.74%
9,O=C(CNC(=O)c1ccc(Br)o1)NCCc1ccc(F)cc1,17.2%
10,COc1ccc(CCC(=O)Nc2ccc3c(c2)OCCO3)cc1,3.14%
11,Cc1cccc(N2C(=O)NC(=O)/C(=C\c3cnn(-c4ccccc4)c3)C2=O)c1,1.93%
12,COc1ccc(CCNC(=O)c2ccc(=O)[nH]n2)cc1OC,3.35%
13,CC(O)[C@H]1CNC(=O)C(=O)N1CCc1cccc2ccccc12 (stereo partly shown),20.8%
14,COc1ccc(OC)c(/C(C)=N/Nc2ccc(C(=O)O)cc2)c1.O=S(=O)(O)O,7.08%
15,O=C(NN=C1CCCC1)c1ccc(O)cc1,17.7%
16,COc1ccccc1OCC#CCn1ccnc1.O=C(O)C(=O)O,17.5%
17,O=C(COC(=O)c1ccc(S(=O)(=O)N2CCOCC2)cc1)NC1CCCCCC1,7.29%
18,Cc1ccc(C[n+]2ccccc2)cc1.[Br-],20%

# — publication PMC4336329 (PLoS ONE, 2015)
